Among the data in the supplement of paper PMC8183993 are nuclei count values, retold here.

Counter-ions that a name gives are not always drawn. ± gives the standard deviation of the averaged measurements. The full ranking holds about 3,200 compounds; the median of “nuclei count (viability) relative to DMSO” is about 99, and the lowest 2% start at about 16. Some of the results follow.

The test system of the assay is U2OS. The assay can be described thus: nuclei count (viability) relative to DMSO (% of DMSO); higher = more viable cells. To be noted: 10 µM; 24 h. As to the method: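 Primary image-based screen in U2OS cells: compounds at 10 uM for 24 h, then a 1 h o-propargyl-puromycin (OPP) pulse, click labelling, and high-throughput microscopy. Mean cytoplasmic OPP intensity and nuclei count were normalised to DMSO wells within each plate (DMSO = 100) and averaged over triplicate plates.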
`CCCN(C/C=C/I)C1CCc2ccc(O)cc2C1` (centres undefined) [7-Hydroxy-PIPAT maleate] gave a nuclei count of 98.3.
Turning to `CC(=O)OC1CN2CCC1CC2` (centres undefined) [Aceclidine Hydrochloride], the nuclei count turned out to be 99.4.
Consider `NC1(c2ccccc2Cl)CCCCC1=O` (centres undefined) [Norketamine hydrochloride], for which the nuclei count was 100.
Next, `O=C1NC(=O)c2c1c1c3ccccc3[nH]c1c1[nH]c3ccccc3c21` [Arcyriaflavin A]: 86.4; `COc1cccc(C2(O)CCCCC2CN(C)C)c1` (centres undefined) [Tramadol hydrochloride]: 107; `CC(CCc1ccccc1)NC(C)C(O)c1ccc(O)cc1` (centres undefined) [Nylidrin]: 112.
The result for `C[N+]1(C)[C@@H]2CC[C@H]1C[C@@H](OC(=O)C(CO)c1ccccc1)C2` (some centres undefined) [Methylatropine nitrate] reads 102.
In turn, `CN1C[C@H](C(=O)N[C@]2(C)O[C@@]3(O)[C@@H]4CCCN4C(=O)[C@H](Cc4ccccc4)N3C2=O)C[C@@H]2c3cccc4[nH]cc(c34)C[C@H]21` [Dihydroergotamine mesylate] displayed a nuclei count of 108.
`CN1C[C@H](C(=O)N[C@]2(C)O[C@@]3(O)[C@@H]4CCCN4C(=O)[C@H](Cc4ccccc4)N3C2=O)C[C@@H]2c3cccc4[nH]cc(c34)C[C@H]21` [Dihydroergotamine tartrate] yielded a nuclei count of 102.
The result for `O=C1NCN(c2ccccc2)C12CCN(CC1COc3ccccc3O1)CC2` (centres undefined) [Spiroxatrine] reads 83.5.
Regarding `C[N+](C)(C)CCCCCCCCCC[N+](C)(C)C` [Decamethonium bromide], the nuclei count amounted to 104.
With `c1ccc2nc(N3CCNCC3)ccc2c1` [Quipazine dimaleate], the nuclei count was 90.8.
The result for `c1ccc2nc(N3CCNCC3)ccc2c1` [Quipazine dimaleate salt] reads 98.6; that for `CCC(=O)O[C@@](Cc1ccccc1)(c1ccccc1)[C@@H](C)CN(C)C` [Levopropoxyphene napsylate], 106; that for `CN1CCN(c2ccc([N+](=O)[O-])c3no[n+]([O-])c23)CC1`, 96.9.
`CN1c2ccccc2C(NCCCCCCC(=O)O)c2ccc(Cl)cc2S1(=O)=O` (centres undefined) [Tianeptine sodium] displayed a nuclei count of 103.
Next, `CN1c2ccccc2C(NCCCCCCC(=O)O)c2ccc(Cl)cc2S1(=O)=O` (centres undefined) [Tianeptine]: 103; `CC(C)C[C@@H](N)C1(c2ccc(Cl)cc2)CCC1`: 94.
Next, `CC[C@@]1(O)C(=O)OCc2c1cc1n(c2=O)Cc2cc3ccccc3nc2-1` [Camptothecine (S,+)]: 39.8.
The result for `CC[C@@]1(O)C(=O)OCc2c1cc1n(c2=O)Cc2cc3ccccc3nc2-1` [Camptothecin] reads 31.2.
With `CO/C1=C\C(C)=C\[C@@H](C)[C@@H](O)[C@@H](C)C/C(C)=C/C=C/[C@H](OC)[C@@H]([C@@H](C)[C@@H](O)[C@H](C)[C@@]2(O)C[C@@H](O)[C@H](C)[C@@H](C(C)C)O2)OC1=O` [Bafilomycin A1], the nuclei count was 79.2 ± 6.1.
Next, `N#Cc1nn(-c2c(Cl)cc(C(F)(F)F)cc2Cl)c(N)c1[S+]([O-])C(F)(F)F` (centres undefined) [Fipronil]: 92.8; `CC[N+](CC)(CCCNC1=CC(=O)C(NCCC[N+](CC)(CC)Cc2ccccc2)=CC1=O)Cc1ccccc1` [Benzoquinonium dibromide]: 91; `C[N+]1(C)CCc2cc3c(cc2C1C1OC(=O)c2c1ccc1c2OCO1)OCO3` (single isomer, unassigned; (-)) [(-)-Bicuculline methobromide]: 92.1.
The result for `C[C@H]1CCC/C=C/[C@@H]2C[C@H](O)C[C@H]2[C@H](O)/C=C/C(=O)O1` [Brefeldin A] reads 57.5 ± 2.
Next, `CC1=C(O)C(=O)C=C2C1=CC=C1[C@@]2(C)CC[C@@]2(C)[C@@H]3C[C@](C)(C(=O)O)CC[C@]3(C)CC[C@]12C` [Celastrol]: 18.9.
For `CC(=O)Oc1ccc(/C=C/c2cc(OC(C)=O)cc(OC(C)=O)c2)cc1` [Triacetylresveratrol], the nuclei count came out at 73.1.
In turn, `CCC(C)C1O[C@]2(C=C[C@@H]1C)C[C@@H]1CC(C/C=C(\C)[C@@H](OC3C[C@H](OC)[C@@H](OC4C[C@H](OC)[C@@H](O)[C@H](C)O4)[C@H](C)O3)[C@@H](C)/C=C/C=C3\COC4[C@H](O)C(C)=CC(C(=O)O1)[C@]34O)O2` (some centres undefined) [Avermectin B1a] gave a nuclei count of 101.
The result for `c1cc(Cc2cnc[nH]2)ccn1` [Immethridine dihydrobromide] reads 92.3; that for `Oc1ccc2c3c1O[C@H]1c4[nH]c5c(c4C[C@@]4(O)[C@@H](C2)N(CC2CC2)CC[C@]314)C[C@@]1(O)[C@H]2Cc3ccc(O)c4c3[C@@]1(CCN2CC1CC1)[C@H]5O4` [nor-Binaltorphimine dihydrochloride], 99.1.
The result for `N.N.[Cl][Pt][Cl]` [Cisplatin] reads 96.2; that for `OC1CCCCC1N1CCC(c2ccccc2)CC1` (racemic) [(±)-Vesamicol hydrochloride], 99.5; that for `CCCN1C[C@H](CSC)C[C@@H]2c3cccc4[nH]cc(c34)C[C@H]21` [Pergolide mesylate], 95.5 ± 5.6.
For `O=C1/C(=C/c2ccccc2)C[C@@]2(O)[C@H]3Cc4ccc(O)c5c4[C@@]2(CCN3CC2CC2)[C@H]1O5` [BNTX maleate], the nuclei count was 3.38.
Regarding `COc1ccc(C(=O)N2CCCC2=O)cc1` [Aniracetam], the nuclei count stood at 96.1 ± 10.
Next, `Cc1ncc(CN2CC=C(c3ccccc3)CC2)c(N)n1`: 99.5; `Cc1[nH]c2ccc(O)cc2c1CCN` [2-Methyl-5-hydroxytryptamine hydrochloride]: 96.7.
In turn, `CC(C(=O)OC1CC2CCC(C1)N2C)c1ccc(Br)cc1` (centres undefined) [PG-9 maleate] had a nuclei count of 98.8.
The result for `O=C(O[C@H]1C[C@H]2CC[C@@H](C1)[N+]21CCCC1)C(O)(c1ccccc1)c1ccccc1` [Trospium chloride (Sanctura)] reads 99.6; that for `CC1(C)CCCC(C)(C)N1[O]`, 91.7; that for `CC[C@@H](C(N)=O)N1CCCC1=O` [Levetiracetam], 103.
The result for `NCC(CS(=O)(=O)O)c1ccc(Cl)cc1` (centres undefined) [Saclofen] reads 108; that for `O=C(O)CCCc1ccc(N(CCCl)CCCl)cc1` [Chlorambucil], 80.5.
Next, `O=Cc1cn(Cc2ccc(Cl)cc2)c2ccccc12` [Oncrasin 1]: 88.2.
Compound `CN(C)Cc1c[nH]c2ccccc12` [Gramine] returned a nuclei count of 100.
The result for `COc1cc2c(cc1O)C(CCc1ccc(Cl)cc1)N(C)CC2` (centres undefined) reads 104; that for `Nc1ccncc1` [4-Aminopyridine], 92.4 ± 6.5.
As to `COc1ccc(-n2nc(C(F)(F)F)cc2-c2ccc(Cl)cc2)cc1`, the nuclei count stood at 101.
The result for `C[N+]1(C)CCOC(O)(c2ccc(-c3ccc(C4(O)C[N+](C)(C)CCO4)cc3)cc2)C1` (centres undefined) [Hemicholinium bromide] reads 98.8.
For the compound `C[C@]12CCC(=O)C=C1CC[C@@H]1[C@@H]2C(=O)C[C@]2(C)C(=O)CC[C@@H]12` [Adrenosterone], the nuclei count was determined as 103.
The compound `O=P(O)(O)Cc1ccccc1` [Benzylphosphonic acid] gave a nuclei count of 106.
Next, `CC(=O)N[C@H]1[C@@H](O[C@@H]2O[C@H](CC(O)[C@H]3O[C@@H](n4ccc(=O)[nH]c4=O)[C@H](O)[C@@H]3O)[C@H](O)[C@H](O)[C@H]2NC(=O)/C=C/CC(C)C)O[C@H](CO)[C@@H](N)[C@@H]1O` (some centres undefined) [Tunicamycin]: 28.5; `CC(C)[C@@]1(O)[C@@H](OC(=O)c2ccc[nH]2)[C@@]2(O)[C@@]3(C)C[C@]4(O)O[C@@]5([C@H](O)[C@@H](C)CC[C@]35O)[C@@]2(O)[C@@]14C` [Ryanodine]: 100.
`COc1ccc(CNC(=O)/C=C/c2ccc3[nH]cc(CCN(C)C)c3c2)cc1` yielded a nuclei count of 104.
The result for `C[CH2][Hg][S]c1ccccc1C(=O)[O-].[Na+]` [Thimerosal] reads 5.97; that for `C[N+](C)(C)CC#CCN1CCCC1=O` [Oxotremorine M], 87.3.
Next, `CC(=O)C1=C(O)[C@@H]2[C@H]3c4c[nH]c5cccc(c45)C[C@H]3C(C)(C)N2C1=O` [Cyclopiazonic Acid]: 90.3; `CC(=O)C1=C(O)[C@@H]2[C@H]3c4c[nH]c5cccc(c45)C[C@H]3C(C)(C)N2C1=O` [Cyclopiazonic acid]: 75.5; `CC(C)[C@@]1(NC(=O)[C@@H]2C[C@@H]3c4cccc5[nH]cc(c45)C[C@H]3N(C)C2)O[C@@]2(O)[C@@H]3CCCN3C(=O)[C@H](Cc3ccccc3)N2C1=O` [Dihydroergocristine mesylate]: 102.
Regarding `CN1CCC(c2c[nH]c3ccc(O)cc23)CC1`, the nuclei count came to 105.
Regarding `CC(N)Cc1c[nH]c2ccc(OCc3cccs3)cc12` (centres undefined) [BW 723C86 hydrochloride], the nuclei count came to 97.9.
The compound `C1=C2CCCN[C@H]2[C@@H]2C[C@H]1[C@H]1CCCCN1C2` [Aloperine] had a nuclei count of 101.
In turn, `CCN[C@@H](C)Cc1cccc(C(F)(F)F)c1` [Dexfenfluramine hydrochloride] had a nuclei count of 104.
Next, `Cn1cnc(CCN)c1` [N _-Methylhistamine dihydrochloride]: 99.4; `C1CCc2nnnn2CC1` [Pentylenetetrazole]: 97.5 ± 8.5; `C=C1[C@@H]2CC[C@H]3[C@]4(C)C[C@H](O[C@@H]5O[C@H](CO)[C@@H](OS(=O)(=O)O)[C@H](OS(=O)(=O)O)[C@H]5OC(=O)CC(C)C)C[C@@H](C(=O)O)[C@H]4CC[C@]3(C2)[C@@H]1O` [Atractyloside potassium salt]: 104.
In turn, `CC(Cc1ccc(O)cc1)NCC(O)c1cc(O)cc(O)c1` (centres undefined) [Fenoterol hydrobromide] gave a nuclei count of 92.9.
Next, `C/C(=C\c1csc(C)n1)[C@@H]1C[C@@H]2O[C@]2(C)CCC[C@H](C)[C@H](O)[C@@H](C)C(=O)C(C)(C)[C@@H](O)CC(=O)O1` [Epothilone B (EPO906)]: 46.5; `C=CC[C@]1(O)CC[C@H]2[C@@H]3CCC4=CC(=O)CCC4=C3C=C[C@@]21C` [Altrenogest]: 96.3.
